# Source: paper PMC9911399, “Two distinct binding modes provide the RNA-binding protein RbFox with extraordinary sequence specificity”
# Substitutions are numbered along the chain they refer to; changes in the protein carry UniProt numbers. The list shows a part of the results.
# T1: RBFOX1 RRM (Homo sapiens, UniProt Q9NWB1 109-208)
# T1 sequence: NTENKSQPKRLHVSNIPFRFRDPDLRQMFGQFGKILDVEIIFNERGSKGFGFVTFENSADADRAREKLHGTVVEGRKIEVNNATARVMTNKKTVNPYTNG
# B1: ACAGGAG (DNA:RNA)
# RNA: GGGAGACCGGAAUUCAGAUUGUCCACAGGAGUUAAAUCCCGUCGUAGCCACCA
# DNA 1: CAATCTGAATTCCGGTCTCCC
# DNA 2: TGGTGGCTACGACGGGATT
# B2: GUGAGGC (DNA:RNA)
# RNA: B1 RNA with A25G, C26U, A27G, G28A, A30G, G31C
# DNA 1: CAATCTGAATTCCGGTCTCCC
# DNA 2: TGGTGGCTACGACGGGATT
# B3: AUGCCGC (DNA:RNA)
# RNA: B1 RNA with C26U, A27G, G28C, G29C, A30G, G31C
# DNA 1: CAATCTGAATTCCGGTCTCCC
# DNA 2: TGGTGGCTACGACGGGATT
# B4: UAUGUCA (DNA:RNA)
# RNA: B1 RNA with A25U, C26A, A27U, G29U, A30C, G31A
# DNA 1: CAATCTGAATTCCGGTCTCCC
# DNA 2: TGGTGGCTACGACGGGATT
# B5: CCGCCAA (DNA:RNA)
# RNA: B1 RNA with A25C, A27G, G28C, G29C, G31A
# DNA 1: CAATCTGAATTCCGGTCTCCC
# DNA 2: TGGTGGCTACGACGGGATT
# B6: GACGCGA (DNA:RNA)
# RNA: B1 RNA with A25G, C26A, A27C, G29C, A30G, G31A
# DNA 1: CAATCTGAATTCCGGTCTCCC
# DNA 2: TGGTGGCTACGACGGGATT
# B7: UGUAAUC (DNA:RNA)
# RNA: GGGAGACCGGAAUUCAGAUUGUCCUGUAAUCUUAAAUCCCGUCGUAGCCACCA
# DNA 1: CAATCTGAATTCCGGTCTCCC
# DNA 2: TGGTGGCTACGACGGGATT
# B8: GCAAACC (DNA:RNA)
# RNA: B7 RNA with U25G, G26C, U27A, U30C
# DNA 1: CAATCTGAATTCCGGTCTCCC
# DNA 2: TGGTGGCTACGACGGGATT
# B9: ACGGCGC (DNA:RNA)
# RNA: B1 RNA with A27G, G29C, A30G, G31C
# DNA 1: CAATCTGAATTCCGGTCTCCC
# DNA 2: TGGTGGCTACGACGGGATT
# B10: CUCACAA (DNA:RNA)
# RNA: B1 RNA with A25C, C26U, A27C, G28A, G29C, G31A
# DNA 1: CAATCTGAATTCCGGTCTCCC
# DNA 2: TGGTGGCTACGACGGGATT
# B11: CGCUUCA (DNA:RNA)
# RNA: B7 RNA with U25C, U27C, A28U, A29U, U30C, C31A
# DNA 1: CAATCTGAATTCCGGTCTCCC
# DNA 2: TGGTGGCTACGACGGGATT
# B12: AGCAAAG (DNA:RNA)
# RNA: B1 RNA with C26G, A27C, G28A, G29A
# DNA 1: CAATCTGAATTCCGGTCTCCC
# DNA 2: TGGTGGCTACGACGGGATT
# B13: AGACGAA (DNA:RNA)
# RNA: B1 RNA with C26G, G28C, G31A
# DNA 1: CAATCTGAATTCCGGTCTCCC
# DNA 2: TGGTGGCTACGACGGGATT
# B14: GCCCCGA (DNA:RNA)
# RNA: B1 RNA with A25G, A27C, G28C, G29C, A30G, G31A
# DNA 1: CAATCTGAATTCCGGTCTCCC
# DNA 2: TGGTGGCTACGACGGGATT
# B15: AGAAGUG (DNA:RNA)
# RNA: B1 RNA with C26G, G28A, A30U
# DNA 1: CAATCTGAATTCCGGTCTCCC
# DNA 2: TGGTGGCTACGACGGGATT
# B16: UCAGAGA (DNA:RNA)
# RNA: B1 RNA with A25U, G29A, A30G, G31A
# DNA 1: CAATCTGAATTCCGGTCTCCC
# DNA 2: TGGTGGCTACGACGGGATT
# B17: UAUAAGU (DNA:RNA)
# RNA: B7 RNA with G26A, U30G, C31U
# DNA 1: CAATCTGAATTCCGGTCTCCC
# DNA 2: TGGTGGCTACGACGGGATT
# B18: CCGGACA (DNA:RNA)
# RNA: B1 RNA with A25C, A27G, G29A, A30C, G31A
# DNA 1: CAATCTGAATTCCGGTCTCCC
# DNA 2: TGGTGGCTACGACGGGATT
# B19: UGUAUCU (DNA:RNA)
# RNA: B7 RNA with A29U, U30C, C31U
# DNA 1: CAATCTGAATTCCGGTCTCCC
# DNA 2: TGGTGGCTACGACGGGATT
# B20: ACCGACA (DNA:RNA)
# RNA: B1 RNA with A27C, G29A, A30C, G31A
# DNA 1: CAATCTGAATTCCGGTCTCCC
# DNA 2: TGGTGGCTACGACGGGATT
# B21: AAGUACA (DNA:RNA)
# RNA: B1 RNA with C26A, A27G, G28U, G29A, A30C, G31A
# DNA 1: CAATCTGAATTCCGGTCTCCC
# DNA 2: TGGTGGCTACGACGGGATT
# B22: UUGGAUU (DNA:RNA)
# RNA: B7 RNA with G26U, U27G, A28G, C31U
# DNA 1: CAATCTGAATTCCGGTCTCCC
# DNA 2: TGGTGGCTACGACGGGATT
# B23: UAUAAAG (DNA:RNA)
# RNA: B7 RNA with G26A, U30A, C31G
# DNA 1: CAATCTGAATTCCGGTCTCCC
# DNA 2: TGGTGGCTACGACGGGATT
# B24: GUGGUAG (DNA:RNA)
# RNA: B1 RNA with A25G, C26U, A27G, G29U
# DNA 1: CAATCTGAATTCCGGTCTCCC
# DNA 2: TGGTGGCTACGACGGGATT
# B25: GGGUUCG (DNA:RNA)
# RNA: B1 RNA with A25G, C26G, A27G, G28U, G29U, A30C
# DNA 1: CAATCTGAATTCCGGTCTCCC
# DNA 2: TGGTGGCTACGACGGGATT
# B26: AUGUCAA (DNA:RNA)
# RNA: B1 RNA with C26U, A27G, G28U, G29C, G31A
# DNA 1: CAATCTGAATTCCGGTCTCCC
# DNA 2: TGGTGGCTACGACGGGATT
# B27: CGCCACC (DNA:RNA)
# RNA: B7 RNA with U25C, U27C, A28C, U30C
# DNA 1: CAATCTGAATTCCGGTCTCCC
# DNA 2: TGGTGGCTACGACGGGATT
# B28: UAUUCAG (DNA:RNA)
# RNA: B1 RNA with A25U, C26A, A27U, G28U, G29C
# DNA 1: CAATCTGAATTCCGGTCTCCC
# DNA 2: TGGTGGCTACGACGGGATT
# B29: GCACACU (DNA:RNA)
# RNA: B1 RNA with A25G, G28C, G29A, A30C, G31U
# DNA 1: CAATCTGAATTCCGGTCTCCC
# DNA 2: TGGTGGCTACGACGGGATT
# B30: CAUAAAA (DNA:RNA)
# RNA: B7 RNA with U25C, G26A, U30A, C31A
# DNA 1: CAATCTGAATTCCGGTCTCCC
# DNA 2: TGGTGGCTACGACGGGATT
# B31: ACGGCCU (DNA:RNA)
# RNA: B1 RNA with A27G, G29C, A30C, G31U
# DNA 1: CAATCTGAATTCCGGTCTCCC
# DNA 2: TGGTGGCTACGACGGGATT
# Biological target: T1, RBFOX1 RRM
# Test: EMSA; HiTS-Eq, 1 nM pool, 10 min; buffer printed only for the single-RNA assays: 10 mM Tris pH 7.5, 150 mM NaCl, 3.4 mM EDTA, 0.001% NP-40, 30 C
# Details: tags: His6 N-terminal (pET28a); label: 5' 32P
# Method in brief: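 Purified RbFox RRM (wild type or mutant) was equilibrated for 10 min in 50 µL with 1 nM of a 5′-radiolabelled pool of RNA with 7 randomized nucleotides, its flanks annealed to DNA oligonucleotides, across increasing protein concentrations. Free RNA was separated by 8% native PAGE, excised, reverse-transcribed, PCR-barcoded and sequenced on an Illumina HiSeq 2500. Relative association constants came from read-count changes of each variant against the control reaction, normalised to the cognate motif.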
row,Binder,binding signal
1,B1,0.00486 KA relative to UGCAUGU
2,B2,0.0084 KA relative to UGCAUGU
3,B3,0.0112 KA relative to UGCAUGU
4,B4,0.0112 KA relative to UGCAUGU
5,B5,0.00228 KA relative to UGCAUGU
6,B6,0.0138 KA relative to UGCAUGU
7,B7,0.0104 KA relative to UGCAUGU
8,B8,0.00398 KA relative to UGCAUGU
9,B9,0.0112 KA relative to UGCAUGU
10,B10,0.00131 KA relative to UGCAUGU
11,B11,0.0083 KA relative to UGCAUGU
12,B12,0.00369 KA relative to UGCAUGU
13,B13,0.00581 KA relative to UGCAUGU
14,B14,0.00208 KA relative to UGCAUGU
15,B15,0.0107 KA relative to UGCAUGU
16,B16,0.0115 KA relative to UGCAUGU

row,Binder,binding signal
1,B17,0.0102 KA relative to UGCAUGU
2,B18,0.008 KA relative to UGCAUGU
3,B19,0.0151 KA relative to UGCAUGU
4,B20,0.00356 KA relative to UGCAUGU
5,B21,0.00261 KA relative to UGCAUGU
6,B22,0.0127 KA relative to UGCAUGU
7,B23,0.00532 KA relative to UGCAUGU
8,B24,0.0176 KA relative to UGCAUGU
9,B25,0.026 KA relative to UGCAUGU
10,B26,0.00745 KA relative to UGCAUGU
11,B27,0.00532 KA relative to UGCAUGU
12,B28,0.0169 KA relative to UGCAUGU
13,B29,0.00505 KA relative to UGCAUGU
14,B30,0.000631 KA relative to UGCAUGU
15,B31,0.0126 KA relative to UGCAUGU
